In PMC12820563:
The list shows a part of the results. The list includes weakly bound sequences.

What follows are sequences tested against T1, MBP-FoxP3dN (UniProt Q99JB6) (assay: PD-seq (MBP pull-down with sequencing)). Conditions: 20 mM Tris-HCl pH 7.5, 100 mM NaCl, 1.5 mM MgCl2, 0.4 uM protein, 0.1 uM dsDNA library, 30 min, room temperature, amylose pull-down; high values mean tight binding; double strand, one strand shown.
T1 sequence: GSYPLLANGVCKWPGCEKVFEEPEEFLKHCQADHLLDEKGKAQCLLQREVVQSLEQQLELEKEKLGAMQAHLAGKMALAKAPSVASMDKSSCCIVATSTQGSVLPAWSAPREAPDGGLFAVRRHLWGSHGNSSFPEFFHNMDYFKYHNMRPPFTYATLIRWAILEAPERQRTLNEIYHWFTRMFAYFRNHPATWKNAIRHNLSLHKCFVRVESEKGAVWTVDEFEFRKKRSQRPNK
In the case of “GATGATTGTTCTCCCAGCTGATGAATTCCTCCCCTCGAGTAAACAAATTTTCCTAATCTTTCTGTTCAAGCGCCATCTAC”, the binding signal (RPM ratio (pull-down/input)) was 0.186.
“GATGATTGTTCTCCCAGCTGATGAATTTTCGTTGTCGAGTAAACAAATTTTCCTAATCTTTCTGTTCAAGCGCCATCTAC” was tested, and the binding signal (RPM ratio (pull-down/input)) was 0.712.
In the case of “GATGATTGTTCTCCCAGCTGATGAATTGATAAAGTCGAGTAAACAAATTTTCCTAATCTTTCTGTTCAAGCGCCATCTAC”, the binding signal (RPM ratio (pull-down/input)) was 0.242.
With “GATGATTGTTCTCCCAGCTGATGAATTGCACGTATCGAGTAAACAAATTTTCCTAATCTTTCTGTTCAAGCGCCATCTAC” the binding signal (RPM ratio (pull-down/input)) was 1.22.
“GATGATTGTTCTCCCAGCTGATGAATTTTGCGGGTCGAGTAAACAAATTTTCCTAATCTTTCTGTTCAAGCGCCATCTAC” showed a binding signal (RPM ratio (pull-down/input)) of 1.32.
“GATGATTGTTCTCCCAGCTGATGAATTACGTTTATCGAGTAAACAAATTTTCCTAATCTTTCTGTTCAAGCGCCATCTAC” gave a binding signal (RPM ratio (pull-down/input)) of 2.86.
Sequence “GATGATTGTTCTCCCAGCTGATGAATTCCAGCATTCGAGTAAACAAATTTTCCTAATCTTTCTGTTCAAGCGCCATCTAC” has a binding signal (RPM ratio (pull-down/input)) of 4.11.
“GATGATTGTTCTCCCAGCTGATGAATTAAGACTATCGAGTAAACAAATTTTCCTAATCTTTCTGTTCAAGCGCCATCTAC” showed a binding signal (RPM ratio (pull-down/input)) of 0.47.
For “GATGATTGTTCTCCCAGCTGATGAATTTCCAATTTCGAGTAAACAAATTTTCCTAATCTTTCTGTTCAAGCGCCATCTAC”, the binding signal (RPM ratio (pull-down/input)) was 0.267.
With “GATGATTGTTCTCCCAGCTGATGAATTTTAGGCATCGAGTAAACAAATTTTCCTAATCTTTCTGTTCAAGCGCCATCTAC” the binding signal (RPM ratio (pull-down/input)) was 0.78.
With “GATGATTGTTCTCCCAGCTGATGAATTTTCCGTTTCGAGTAAACAAATTTTCCTAATCTTTCTGTTCAAGCGCCATCTAC” the binding signal (RPM ratio (pull-down/input)) was 0.295.
In the case of “GATGATTGTTCTCCCAGCTGATGAATTTAGTATTTCGAGTAAACAAATTTTCCTAATCTTTCTGTTCAAGCGCCATCTAC”, the binding signal (RPM ratio (pull-down/input)) was 3.31.
“GATGATTGTTCTCCCAGCTGATGAATTTCAGCATTCGAGTAAACAAATTTTCCTAATCTTTCTGTTCAAGCGCCATCTAC” was tested, and the binding signal (RPM ratio (pull-down/input)) was 4.99.
Sequence “GATGATTGTTCTCCCAGCTGATGAATTAGGTTTATCGAGTAAACAAATTTTCCTAATCTTTCTGTTCAAGCGCCATCTAC” has a binding signal (RPM ratio (pull-down/input)) of 2.69.
“GATGATTGTTCTCCCAGCTGATGAATTCTCGCGCTCGAGTAAACAAATTTTCCTAATCTTTCTGTTCAAGCGCCATCTAC” showed a binding signal (RPM ratio (pull-down/input)) of 0.399.
“GATGATTGTTCTCCCAGCTGATGAATTTACAGTCTCGAGTAAACAAATTTTCCTAATCTTTCTGTTCAAGCGCCATCTAC” gave a binding signal (RPM ratio (pull-down/input)) of 0.574.
“GATGATTGTTCTCCCAGCTGATGAATTGATCCCTTCGAGTAAACAAATTTTCCTAATCTTTCTGTTCAAGCGCCATCTAC” showed a binding signal (RPM ratio (pull-down/input)) of 0.327.
Work on “GATGATTGTTCTCCCAGCTGATGAATTCCCGCGATCGAGTAAACAAATTTTCCTAATCTTTCTGTTCAAGCGCCATCTAC” yielded a binding signal (RPM ratio (pull-down/input)) of 0.419.
